Measurements as given in PubChem BioAssay AID588855 (National Center for Advancing Translational Sciences (NCATS), 2011).
Screen size: about 410,000 compounds; about 5,000 (1.2%) were called active. The inconclusive results got no clear call from the source; some entries with a clear call stand among them for comparison. The call rests on the fitted dose curve; in most records, active means well fitted inhibition curve with a large enough effect; inconclusive means small, poorly fitted or top-dose-only effect; inactive means no such curve, though single readings can be large or run the other way. A potency beside an inconclusive call is a rough fit, not a confirmed value.

Test: qHTS for Inhibitors of TGF-b; further: nearly all actives have a fitted effect of over 65% in size
Conditions: HepG2 CAGA-GFP TGF-b/SMAD3 reporter, GFP fluorescence, 18 h, TGF-beta stimulated, 500 pg/mL final; series mostly up to 46.1 µM; activity, negative = inhibition: at the top concentration
Method in brief: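 Inhibition was scored as loss of TGF-beta-induced (500 pg/mL final, 18 hours, 37 degrees C) GFP in HEPG2 cells carrying a CAGA-GFP reporter, in DMEM with 1% FBS. Well GFP was summed per cell; Activity was normalised to unstimulated and stimulated DMSO wells, then concentration-response fitting.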
On the % scale 0 is the no-effect control and ±100 the full control effect; potency means the concentration at half of the fitted maximal effect; tags describe the fitted curve by direction and shape.

| Structure (SMILES) | activity, negative = inhibition | Potency |
| --- | --- | --- |
| CC(C)(C)c1ccc(O)c(CN2CCN(c3ccccc3)CC2)c1 | inactive: -8.84% |  |
| S=C(NCCc1ccccc1)N1Cc2ccc(Br)cc2-n2nncc2C1 |  | inconclusive: 12.6 µM [inhibitor, partial curve] |
| Cc1ccc2c(c1)Oc1ccccc1N=C2 | inactive: 3.39% |  |
| COc1ccc(C(CC(=O)N2CCC3(CC2)OCCO3)NS(=O)(=O)c2ccc(C)cc2)cc1 (centres undefined) |  | inconclusive: 4.47 µM [inhibitor, full curve, poor fit] |
| COc1cc2c(c(OC)c1OC)-c1ccc(O)c(=O)cc1[C@@H](NC(C)=O)CC2 |  | inconclusive: 35.5 µM [inhibitor, single point] |
| Cc1ccccc1NC(=O)CCl |  | inconclusive: 10 µM [inhibitor, partial curve, poor fit] |
| O=C1NC(=O)N(Cc2ccccc2)C(=O)C1Cc1ccccc1 (centres undefined) |  | inconclusive: 6.31 µM [inhibitor, single point] |
| O=C(O)C1=CC2c3ccccc3C1c1ccccc12 |  | inconclusive: 10 µM [inhibitor, partial curve, poor fit] |
| Cc1[nH]c2ccccc2c1CCNCc1cccnc1 | inactive: -2.78% |  |
| Cc1ccc(C(=O)N[C@@H](C)CN2C3=NC[C@H](Cc4ccccc4)N3C[C@H]2Cc2ccc(O)cc2)cc1Br |  | active: 12.6 µM |
| CCc1ccc(N2C(=O)NC(=O)C(Cc3ccc(OC)cc3OC)C2=O)cc1 (centres undefined) | inactive: 4.49% |  |
| O=C(c1ccccc1)N1C(=O)C(c2ccccc2)Oc2ccccc21 (centres undefined) |  | inconclusive: 35.5 µM [inhibitor, single point] |
| CNCC(O)c1cc(F)c(OCc2ccccc2)c(OCc2ccccc2)c1F (centres undefined) |  | inconclusive: 15.8 µM [inhibitor, single point] |
| O=C1NCN(c2ccccc2)C12CCN(C(c1nnnn1C1CCCC1)C1CC1)CC2 (centres undefined) | inactive: -28.6% |  |
| CCCCn1c(C)c(C(=O)OCC)c2c(CN3CCCC3)c(O)ccc21 |  | inconclusive: 31.6 µM [inhibitor, single point] |
| CC1CCC/C=C/C2CC(O)CC2C(O)/C=C/C(=O)O1 (centres undefined) |  | active: 0.112 µM |
| Cc1cc(C=O)c(C)n1C1CCCCC1 |  | inconclusive: 6.31 µM [inhibitor, single point] |
| CCCCn1nnnc1C(c1cccc2ccccc12)N1CCC2(CC1)C(=O)NCN2c1ccccc1 (centres undefined) |  | active: 17.8 µM |
| CCCCOP(=O)(OCCCC)C(O)c1ccc(Br)cc1 (centres undefined) |  | inconclusive: 25.1 µM [inhibitor, single point] |
| CSc1ncc(CN2CCCC(C(=O)c3sccc3C)C2)cn1 (centres undefined) |  | inconclusive: 35.5 µM [inhibitor, single point] |
| O=C(N/N=C/c1c(O)n(Cc2ccccc2)c(=O)[nH]c1=O)c1ccncc1 | inactive: 3.31% |  |
| Cc1cccc(C)c1-n1nnnc1C(c1cc2ccccc2o1)N1CCC(n2c(=O)[nH]c3ccccc32)CC1 (centres undefined) |  | active: 7.08 µM |

| Structure (SMILES) | activity, negative = inhibition | Potency |
| --- | --- | --- |
| COc1cc2c3cc1Oc1c(OC)c(OC)cc4c1[C@H](Cc1ccc(cc1)Oc1cc(ccc1O)C[C@H]3N(C)CC2)N(C)CC4 |  | inconclusive: 15.8 µM [inhibitor, single point] |
| Cc1cc(C)cc(NC(=O)CN2C(=O)CN=C(c3ccccc3)c3cc(Cl)ccc32)c1 |  | inconclusive: 1.12 µM [inhibitor, partial curve, poor fit] |
| N#CC(C#N)=Cc1ccc(C=C(C#N)C#N)cc1 |  | inconclusive: 7.94 µM [inhibitor, partial curve, poor fit] |
| Cn1c(=O)c2c(nc(N/N=C/c3c(O)n(C4CCCCC4)c(=S)[nH]c3=O)n2C)n(C)c1=O |  | inconclusive: 14.1 µM [inhibitor, partial curve, poor fit] |
| CC(=O)c1ccc(NC(=O)N2C[C@H]3C[C@@H](C2)c2cccc(=O)n2C3)cc1 | inactive: 0.756% |  |
| COC(=O)C1=C(c2ccc(OC)c(OC)c2)C[C@@H]2CC[C@H]1N2C(=O)NCCOc1ccccc1Cl |  | inconclusive: 6.31 µM [inhibitor, single point] |
| CC(=NCCN1CCOCC1)c1c(O)n(Cc2ccccc2)c(=O)[nH]c1=O | inactive: 22.7% |  |
| COc1ccc(CN2CCN(C(=O)Cn3c(=O)oc4cc(Cl)ccc43)CC2)c(OC)c1OC |  | inconclusive: 11.2 µM [inhibitor, partial curve, poor fit] |
| COc1cccc(NP(=O)(Oc2ccccc2)Oc2ccccc2)c1 |  | active: 17.8 µM |
| Cc1cc(C=C2C(=O)NC(=S)NC2=O)c(C)n1-c1ccc2c(c1)OCO2 |  | inconclusive: 35.5 µM [inhibitor, single point] |
| COC(=O)C1=C(c2ccc(F)cc2OCc2ccccc2)C[C@@H]2CC[C@H]1N2C(=O)NCc1cc(C)oc1C(F)(F)F | inactive: -0.0817% |  |
| CN(C)c1ccc(CCN2CCOCC2)cc1 |  | inconclusive: 5.62 µM [inhibitor, single point] |
| CC(=O)Nc1ccc(OCCF)cc1 | inactive: -2.38% |  |
| Cc1nc(-c2ccc(Cl)cc2)sc1C1(C)CC(c2ccccc2)=NO1 (centres undefined) |  | inconclusive: 5.01 µM [inhibitor, full curve, poor fit] |
| S=C(NCCc1ccccc1)N1Cc2cc(-c3ccccc3)ccc2-n2nncc2C1 |  | inconclusive: 14.1 µM [inhibitor, partial curve, poor fit] |
| C=CCN1C(=O)NC(=O)/C(=C\c2ccc(-c3ccccc3[N+](=O)[O-])o2)C1=O |  | inconclusive: 35.5 µM [inhibitor, single point] |
| COC(=O)C1=C(c2cccc(OCc3ccccc3)c2)C[C@@H]2CC[C@H]1N2C(=O)NCCc1ccc(F)cc1 |  | inconclusive: 35.5 µM [inhibitor, single point] |
| CCCCCC[N+](=O)[O-] | inactive: -2.23% |  |
| C[N+](C)(N)CCOC(=O)C(O)(c1ccccc1)C1CCCCC1 (centres undefined) | inactive: 1.17% |  |
| O=C(NCCCN1CC1)Nc1cccc2ccccc12 |  | inconclusive: 4.47 µM [inhibitor, single point] |
| O=C1C(=O)c2ccccc2-c2ccccc21 |  | active: 1.12 µM |
| COc1ccc(Cl)cc1NC(=O)C1CCN(c2nnc(C)c3c(C)n(-c4ccccc4)nc23)CC1 |  | inconclusive: 4.47 µM [inhibitor, full curve, poor fit] |
